# Results as given in publication PMC4336329 (PLoS ONE, 2015).
# The campaign covered roughly 310,000 compounds. About 14,000 (4.5%) showed an effect of 50% or more. The effect is printed as a negative number. This is one part of the list.
# Target: human ether-à-go-go-related gene (hERG) potassium channel (human, UniProt Q12809)
# Assay: primary screen, population patch clamp on CHO cells stably expressing hERG
# 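Also: peak tail current of the secondary pulse compared with the same well before compound.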
# Sequence of human ether-à-go-go-related gene (hERG) potassium channel (Q12809 whole entry, looked up): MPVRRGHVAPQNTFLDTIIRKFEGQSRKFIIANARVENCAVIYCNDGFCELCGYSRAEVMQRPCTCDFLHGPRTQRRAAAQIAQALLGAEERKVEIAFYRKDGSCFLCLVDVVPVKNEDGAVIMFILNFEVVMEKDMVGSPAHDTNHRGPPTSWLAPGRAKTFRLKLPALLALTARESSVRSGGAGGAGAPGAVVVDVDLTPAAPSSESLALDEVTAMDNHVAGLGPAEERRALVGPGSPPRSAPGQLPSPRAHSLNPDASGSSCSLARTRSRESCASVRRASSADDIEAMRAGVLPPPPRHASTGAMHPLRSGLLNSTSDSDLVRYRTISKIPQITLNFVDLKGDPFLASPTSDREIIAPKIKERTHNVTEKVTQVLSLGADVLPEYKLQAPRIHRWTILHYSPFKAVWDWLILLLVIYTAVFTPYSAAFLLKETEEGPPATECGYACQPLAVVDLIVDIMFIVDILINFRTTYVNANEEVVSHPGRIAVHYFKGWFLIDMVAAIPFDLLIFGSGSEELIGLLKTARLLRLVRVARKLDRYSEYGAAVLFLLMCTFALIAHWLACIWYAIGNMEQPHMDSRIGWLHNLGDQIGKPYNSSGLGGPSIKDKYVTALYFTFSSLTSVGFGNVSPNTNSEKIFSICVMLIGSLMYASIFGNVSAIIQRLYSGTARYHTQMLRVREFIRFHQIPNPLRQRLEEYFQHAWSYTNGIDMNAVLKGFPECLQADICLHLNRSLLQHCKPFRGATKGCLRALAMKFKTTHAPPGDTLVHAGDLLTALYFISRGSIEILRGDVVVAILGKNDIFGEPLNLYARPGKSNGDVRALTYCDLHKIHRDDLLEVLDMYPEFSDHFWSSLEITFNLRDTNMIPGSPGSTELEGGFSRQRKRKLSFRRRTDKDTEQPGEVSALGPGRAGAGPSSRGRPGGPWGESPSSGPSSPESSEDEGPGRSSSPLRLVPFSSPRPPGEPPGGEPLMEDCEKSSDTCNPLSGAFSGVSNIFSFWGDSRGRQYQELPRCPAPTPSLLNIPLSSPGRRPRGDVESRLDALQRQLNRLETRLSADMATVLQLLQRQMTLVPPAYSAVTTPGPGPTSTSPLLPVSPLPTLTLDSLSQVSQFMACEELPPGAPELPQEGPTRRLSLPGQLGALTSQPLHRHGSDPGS
row,Compound,"hERG current change (%, negative = inhibition) at 10uM [%]"
1,COc1ccc(NC(=O)CS(=O)c2ccc(Cl)c(Cl)c2)cc1 (centres unmarked),6.27
2,CN(CC(=O)Nc1ccccc1Cl)C(=O)c1cc(-c2cccs2)nn1-c1ccccc1,12.2
3,Cn1c(=NC(=O)c2ccc3c(c2)OCCO3)sc2cc(S(C)(=O)=O)ccc21,38.9
4,CC(C)c1ccc(C(=O)Nc2cccnc2)cc1,3.63
5,Cc1nnc(SCc2ccccc2)nc1-c1ccccc1,-11
6,CC(=O)c1ccc(OC(=O)N2CCOCC2)cc1,2.08
7,OC(COCc1cccs1)CN1CCN(c2ccccn2)CC1 (centres unmarked),-52.5
8,CCOc1ccccc1C1NC(=O)NC(C)=C1C(=O)OC1CCCCC1 (centres unmarked),10.8
9,CC(NC(=O)COC(=O)c1ccc(Cl)cc1O)c1ccc(F)cc1 (centres unmarked),7.92
10,CC12CN3CN(C1)CC(C)(C3)C2=NO,8.67
11,NCCC(=O)NCCc1cnc[nH]1,15.2
12,COc1ccc(CCC(N)=O)cc1OC,11.1
13,COc1cc(S(=O)(=O)n2nc(C)cc2C)ccc1Cl,-2.43
14,COc1ccc(OC)c(CNC(=O)C2CCCN(c3ncnc4c3nc3n4CCCCC3)C2)c1 (centres unmarked),-59
15,CCOC(=O)C(CC(=O)c1ccccc1)CC(=O)c1ccccc1,-12.5
16,CCCn1c(=O)c(C(=O)NCc2ccccn2)c(O)c2ccccc21,-11.1
17,COc1cc(NC(=S)N2CCN(S(C)(=O)=O)CC2)cc(OC)c1,5.84
18,O=C(N/N=C/c1cccc(Oc2ccc([N+](=O)[O-])cc2[N+](=O)[O-])c1)c1cncc(Br)c1,-32.1
19,O=C(NC1CC1)c1nc2c(nnn2Cc2ccccc2Cl)c(=O)[nH]1,0.681
20,CC1(C)C=Cc2c(c3c(c4c(=O)c(-c5ccc(O)cc5)coc24)OC(C)(C)CC3)O1,14.2
21,C/C=C/c1ccc(OC(C)=O)c(OC)c1,14
22,O=S(=O)(NC1CC1)c1ccc(S(=O)(=O)N(Cc2ccccn2)C2CC2)cc1,-29.1
23,COc1ccc(NC(=O)Cn2nnc(C(=O)NCCc3ccc(OC)c(OC)c3)c2N)cc1,-4.59

row,Compound,"hERG current change (%, negative = inhibition) at 10uM [%]"
1,COc1ccccc1C(=O)NCC(=O)N=Nc1c(O)n(C(C)C)c2ccccc12,-7.32
2,O=C(NCc1nc2ccccc2[nH]1)C1=C[C@H](c2csc3ccccc23)C[C@H](OCc2ccc(CO)cc2)O1,-4.12
3,Nc1nc(CN2CCN(c3ccccc3F)CC2)nc(Nc2ccc3c(c2)OCCO3)n1,-74.4
4,Cc1cc(C)c(NC(=O)C(C)N2CCCCCC2)c(C)c1.Cl (centres unmarked),-5.7
5,Cc1ccc(-c2ccc(/C=N\NC(=O)c3cc4c(ccc5ccccc54)o3)o2)cc1[N+](=O)[O-],10.5
6,CS(=O)(=O)c1ccc2nc(NC(=O)C3=NN(c4ccccc4)C(=O)CC3)sc2c1,-22.1
7,COc1ccc(NC(=O)N2CCCC2C(=O)NCC2CCCCC2)cc1 (centres unmarked),0.904
8,Cc1nc2scc(C)n2c(=O)c1S(=O)(=O)NCCc1ccc(Cl)cc1,7.69
9,COC(=O)c1ccc(N2CCCCC2)c(N)c1,-4.44
10,CCCCCCCCCCCC(=O)NC(Cc1ccc(OC)c([N+](=O)[O-])c1)C(=O)[O-].[NH4+] (centres unmarked),-28.9
11,O=C(OCc1ccc([N+](=O)[O-])cc1)c1ccc2ccccc2n1,-19
12,CC1CCCN(C(=O)CSc2nnc(-c3ccncc3)n2C)C1 (centres unmarked),45.9
13,CCC1=NC(c2ccccc2Cl)N(O)C1(C)C (centres unmarked),21.6
14,O=C(CSc1ccccc1)NC1=NCCS1,3.33
15,CC(=O)Nc1cccc(C(=O)N/N=C/c2ccc(F)cc2)c1,10.6
16,Cc1cccc(OC(C)C(=O)Nc2nccs2)c1 (centres unmarked),8.8
17,COc1ccc(C2CC(=O)Nc3ccccc3S2(=O)=O)cc1OC (centres unmarked),5.26
18,O=C(NC1CN2CCC1CC2)c1ccc(-c2ccc([N+](=O)[O-])cc2)o1 (centres unmarked),-64
19,CCCNC(=O)NC(=O)CN1C(=O)NC(C)(c2ccc3ccccc3c2)C1=O (centres unmarked),4.51
20,Cc1cccc(NC(=O)CSc2nc(C)c(CC(=O)c3ccc(Br)cc3)c(C)c2C#N)c1C,18.4
21,C=CCNc1nc2c(c(=O)n(C)c(=O)n2C)n1CC,7.31
22,Cc1ccc(CNC(=O)CN2C(=O)COc3ccc(S(=O)(=O)N4CCCCC4)cc32)o1,16
23,CCC1(COC(=O)Nc2cccc(Cl)c2)COC1,-13.3

row,Compound,"hERG current change (%, negative = inhibition) at 10uM [%]"
1,O=C(NC(=S)Nc1cc(C(F)(F)F)ccc1N1CCOCC1)c1ccc(-c2cccc(Cl)c2)o1,-2.47
2,CC(C)Nc1nc(NC(C)C)nc(NS(=O)(=O)c2ccc(N)cc2)n1,-2.77
3,Cc1cccc(C)c1NC(=O)C(c1ccccc1)N1CCC1=O (centres unmarked),9.89
4,C=C1N2CCC(CC2)C1(O)c1ccccc1C.Cl (centres unmarked),3.97
5,CCOc1ccccc1OCCn1nnc2ccccc21,-2.6
6,Cc1nc2nc[nH]n2c(=O)c1NC(=O)CCc1ccccc1,1.26
7,COc1cc(C(=O)Oc2ccccc2/C=N/NC(=O)c2ccc(C)c(Cl)c2)cc(OC)c1OC,-3.66
8,CC[C@@H](C(N)=O)N1CCCC1=O,-3.78
9,O=[N+]([O-])c1ccc(C2=NCCO2)cc1,7.29
10,Cc1cc(C)c(S(=O)(=O)c2cccc(C(F)(F)F)c2)c(=O)[nH]1,11.9
11,CCOC(=O)CC(NC(=O)c1ccccc1)c1ccc(OC)cc1 (centres unmarked),5.04
12,NS(=O)(=O)c1ccc(NC(=O)CN2C(=O)CCC2=O)cc1,27.7
13,COC(=O)CCC(=O)NC(=S)Nc1sc(C)c(C)c1C(N)=O,11.1
14,CCN(CC)C(=O)Cn1cnc2c1c(=O)n(C)c(=O)n2C,-8.14
15,COc1ccccc1C(=O)NCC(=O)OCC(=O)c1ccc2c(c1)-c1ccccc1C2,-0.208
16,O=S(=O)(NCc1ccc2c(c1)OCO2)c1cnc[nH]1,12.9
17,COc1ccc(NC(=O)CSc2nc(N3CCCCC3)nc(N3CCCCC3)n2)cc1,5.01
18,CCCn1c(SCC(=O)NCc2ccccc2)nnc1-c1ccncc1,5.29
19,CC(C)n1cc(/C=C2/NC(=O)NC2=O)c2ccccc21,-2.61
20,COC(=O)c1ccccc1NC(=O)C1CCCN(S(=O)(=O)c2ccc(OC)cc2)C1 (centres unmarked),-7.91
21,O=C(Nc1cccc(S(=O)(=O)N2CCCCC2)c1)C1CC(=O)N(c2ccc3c(c2)OCCO3)C1 (centres unmarked),16.9
22,CC(=O)Nc1cccc(NC(=O)CSc2nnc3ccc(-c4ccncc4)nn23)c1,-17.8
23,Cl.O=C1CCN=C(Nc2ccc(F)cc2)N1Cc1ccccc1,-12.9

row,Compound,"hERG current change (%, negative = inhibition) at 10uM [%]"
1,FC(F)(F)c1nc(Oc2ccccc2)c2ccccc2n1,11.3
2,COc1cccc(S(=O)(=O)NCc2ccc3c(c2)OCO3)c1,-16.5
3,Cl.O=C(/C=C/c1cccc(OCc2ccccc2)c1)c1cccnc1,13.5
4,COc1ccc(S(=O)(=O)N2CCOCC2)cc1NC(=O)c1ccc(Cl)cc1,2.56
5,CCN(CCO)c1cc(Cl)nc(SC)n1,-3.89
6,CCc1ccc(N2CC(C(=O)Nc3ccc4c(c3)OCCO4)CC2=O)cc1 (centres unmarked),-41.3
7,CCOC(=O)N1CCN(S(=O)(=O)c2ccc([N+](=O)[O-])cc2)CC1,-23.9
8,Cc1nn(CC(=O)Nc2ccccc2C(F)(F)F)c(=O)c2cccn12,6.34
9,COc1ccc(OC)c(S(=O)(=O)N(C)CC(=O)N2CCN(c3ccc(F)cc3)CC2)c1,-44.3
10,Cc1cc2nc(SC(C)C(=O)O)[nH]c2cc1C (centres unmarked),25.9
11,COc1cccc(CCNC(=O)CC2C(=O)NCCN2Cc2ccc(Cl)c(F)c2)c1 (centres unmarked),-15.1
12,COc1ccc(-c2sc(Nc3ccccc3)n[n+]2-c2ccc(F)cc2)c(C)c1C.[Cl-],-74.5
13,CCCSC(=O)N(CC)CC(=O)Nc1c(CC)cccc1CC,-16.6
14,CCC(=O)NC(=S)Nc1cccc(NC(=O)c2ccc(Cl)cc2Cl)c1,14
15,Cl.N=c1sccn1CC(=O)Nc1ccc(Cl)c(S(=O)(=O)N2CCOCC2)c1,-50.4
16,O=C(O)CN(c1ccccc1)S(=O)(=O)c1cc(C(F)(F)F)cc(C(F)(F)F)c1,11
17,O=C(COc1coc(CN2CCCc3ccccc32)cc1=O)Nc1ccc([N+](=O)[O-])cc1,0.271
18,O=C(c1ccccc1SCc1ccc(F)cc1)N1CCOCC1,37.2
19,COc1ccc(-c2cn3c(C)c(C(=O)NC(C)(C)C)sc3n2)cc1,-7.22
20,O=C(CCc1nnc(-c2ccccc2)o1)NCc1cc(F)ccc1F,14.1
